Values marked as one replicate rest on one cluster of the flow cell; about a third of the high ones do not repeat.
test system: ATP; experiment: switch fluorescence ratio, 500 uM ATP over buffer (Cy3 cluster intensity, sum of 5 cycles each) (fold (ratio)); higher = stronger signal-on switching upon ATP binding; sequences stand for … in TCGTCGGCAGCGTCAGATGTGTATAAGAGACAGTTTTTTTTTTTTTTTTTTTTTTTTT…TC; settings: aptamer strand: ATP DNA aptamer (quencher-CACCTGGGGGAGTATTGCGGAGGAAGG + anchor), 100 nM annealed; ATP concentration: 500 uM; one replicate
Summary of the method: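 Between each of five buffer/ATP cycles, the flow-cell was stripped with NaOH and re-annealed. Each cycle imaged Cy3-labelled switching-strand clusters, annealed to 100 nM quencher-labelled ATP aptamer on a modified Illumina MiSeq flow-cell, first in selection buffer and then after 15 min with 500 uM ATP at 22 °C. The fluorescence ratio is summed target-cycle over summed buffer-cycle Cy3 intensity per cluster, averaged per switch-domain sequence, with clusters outside 100-1000 RFU excluded.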
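Also: ATP exposure 15 min at 22 °C before imaging.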

Q: How did the switch fluorescence ratio turn out when GGAAGCAGAA was run?
A: 0.971

Q: For GGAAGCGTT, which switch fluorescence ratio is on record?
A: 0.998

Q: How did the switch fluorescence ratio turn out when GGAAGGAGTT was run?
A: 0.989

Q: For GGAAGGTGGA, which switch fluorescence ratio is on record?
A: 1.02

Q: With GGAAGGTTGA as the sequence, how does the switch fluorescence ratio read?
A: 1.03

Q: Which switch fluorescence ratio does the source give for GGAATATGCA here?
A: 1.01

Q: With GGAATATGGA as the sequence, how does the switch fluorescence ratio read?
A: 0.979

Q: With GGAATCGCGT as the sequence, how does the switch fluorescence ratio read?
A: 1.05

Q: GGAATGACCA was tested. Which switch fluorescence ratio did it give?
A: 1

Q: How did the switch fluorescence ratio turn out when GGAATTAATA was run?
A: 1

Q: How did the switch fluorescence ratio turn out when GGAATTATG was run?
A: 0.949

Q: With GGAATTGAAT as the sequence, how does the switch fluorescence ratio read?
A: 1.02

Q: With GGACAAATGT as the sequence, how does the switch fluorescence ratio read?
A: 0.995

Q: For GGACAGCCCG, which switch fluorescence ratio is on record?
A: 1.15

Q: For GGACCAAAAA, which switch fluorescence ratio is on record?
A: 1.06

Q: With GGACCACAAT as the sequence, how does the switch fluorescence ratio read?
A: 1.07

Q: Which switch fluorescence ratio does the source give for GGACCCGTAG here?
A: 0.987

Q: GGACCGGAGA was tested. Which switch fluorescence ratio did it give?
A: 1.01

Q: For GGACCGTGGT, which switch fluorescence ratio is on record?
A: 0.98

Q: How did the switch fluorescence ratio turn out when GGACCTGTGT was run?
A: 1.01

Q: Which switch fluorescence ratio does the source give for GGACCTTCGA here?
A: 1.13

Q: With GGACGAATCC as the sequence, how does the switch fluorescence ratio read?
A: 1.02

Q: With GGACGACCGT as the sequence, how does the switch fluorescence ratio read?
A: 1.03

Q: GGACGAGCCA was tested. Which switch fluorescence ratio did it give?
A: 1.01

Q: How did the switch fluorescence ratio turn out when GGACGCCTGA was run?
A: 1.1

Q: For GGACGCGGGG, which switch fluorescence ratio is on record?
A: 0.97

Q: For GGACTCAAAC, which switch fluorescence ratio is on record?
A: 1.89

Q: Which switch fluorescence ratio does the source give for GGACTCAAGC here?
A: 1.08

Q: Which switch fluorescence ratio does the source give for GGACTCCCGC here?
A: 1.47

Q: With GGACTCGTGG as the sequence, how does the switch fluorescence ratio read?
A: 0.991

Q: GGACTGCCCC was tested. Which switch fluorescence ratio did it give?
A: 1.1

Q: For GGACTGTAAT, which switch fluorescence ratio is on record?
A: 1.13

Q: For GGACTTACCA, which switch fluorescence ratio is on record?
A: 1.06

Q: With GGACTTCGGG as the sequence, how does the switch fluorescence ratio read?
A: 0.957

Q: How did the switch fluorescence ratio turn out when GGACTTGACT was run?
A: 1.03

Q: GGACTTTCTC was tested. Which switch fluorescence ratio did it give?
A: 1.07

Q: For GGAGAATAAG, which switch fluorescence ratio is on record?
A: 1.01

Q: How did the switch fluorescence ratio turn out when GGAGAATAGG was run?
A: 1.2

Q: GGAGAATCG was tested. Which switch fluorescence ratio did it give?
A: 1.01

Q: With GGAGACACGC as the sequence, how does the switch fluorescence ratio read?
A: 1.07

Q: How did the switch fluorescence ratio turn out when GGAGACATAG was run?
A: 1.11

Q: For GGAGACGCC, which switch fluorescence ratio is on record?
A: 1

Q: With GGAGACTAGA as the sequence, how does the switch fluorescence ratio read?
A: 1.04

Q: GGAGACTCAG was tested. Which switch fluorescence ratio did it give?
A: 0.923

Q: How did the switch fluorescence ratio turn out when GGAGACTTTC was run?
A: 0.923

Q: With GGAGAGTCGT as the sequence, how does the switch fluorescence ratio read?
A: 0.99

Q: Which switch fluorescence ratio does the source give for GGAGATAGG here?
A: 0.992

Q: How did the switch fluorescence ratio turn out when GGAGCACAGG was run?
A: 1.29

Q: For GGAGCCGATA, which switch fluorescence ratio is on record?
A: 1.15

Q: GGAGCCGGTA was tested. Which switch fluorescence ratio did it give?
A: 0.964

Q: For GGAGCGACGA, which switch fluorescence ratio is on record?
A: 1.02

Q: With GGAGCGGCCT as the sequence, how does the switch fluorescence ratio read?
A: 1.03

Q: Which switch fluorescence ratio does the source give for GGAGCTAGTT here?
A: 1.07

Q: GGAGCTATTG was tested. Which switch fluorescence ratio did it give?
A: 1.12

Q: How did the switch fluorescence ratio turn out when GGAGCTTAGG was run?
A: 1.04

Q: For GGAGCTTGA, which switch fluorescence ratio is on record?
A: 1.39

Q: GGAGGATGTC was tested. Which switch fluorescence ratio did it give?
A: 1.07

Q: GGAGGCACGG was tested. Which switch fluorescence ratio did it give?
A: 0.959

Q: With GGAGGCCACG as the sequence, how does the switch fluorescence ratio read?
A: 1

Q: How did the switch fluorescence ratio turn out when GGAGGCCTA was run?
A: 1.02

Q: How did the switch fluorescence ratio turn out when GGAGGCGCGC was run?
A: 0.946

Q: Which switch fluorescence ratio does the source give for GGAGGGCGTA here?
A: 1

Q: For GGAGGTATT, which switch fluorescence ratio is on record?
A: 1.01

Q: How did the switch fluorescence ratio turn out when GGAGGTGACT was run?
A: 0.948

Q: For GGAGGTGCTT, which switch fluorescence ratio is on record?
A: 1.01

Q: For GGAGTAAAAT, which switch fluorescence ratio is on record?
A: 1.03

Q: How did the switch fluorescence ratio turn out when GGAGTACCAT was run?
A: 0.983

Q: For GGAGTAGCTC, which switch fluorescence ratio is on record?
A: 1.02

Q: Which switch fluorescence ratio does the source give for GGAGTCGGCA here?
A: 0.933

Q: For GGAGTCTGCA, which switch fluorescence ratio is on record?
A: 1.12

Q: For GGAGTGCAAT, which switch fluorescence ratio is on record?
A: 1.16

Q: Which switch fluorescence ratio does the source give for GGAGTGGTGG here?
A: 1.03

Q: For GGAGTGGTGT, which switch fluorescence ratio is on record?
A: 1.01

Q: How did the switch fluorescence ratio turn out when GGAGTTGGTC was run?
A: 1.03

Q: Which switch fluorescence ratio does the source give for GGATAACAGG here?
A: 0.965

Q: Which switch fluorescence ratio does the source give for GGATAACGTG here?
A: 0.971

Q: For GGATAAGGGA, which switch fluorescence ratio is on record?
A: 0.992

Q: GGATAATAGC was tested. Which switch fluorescence ratio did it give?
A: 1.02

Q: With GGATAATGGG as the sequence, how does the switch fluorescence ratio read?
A: 0.976

Q: Which switch fluorescence ratio does the source give for GGATACCAAA here?
A: 0.976

Q: Which switch fluorescence ratio does the source give for GGATACCCGG here?
A: 1.07

Q: With GGATACGGGT as the sequence, how does the switch fluorescence ratio read?
A: 0.998

Q: With GGATAGAAAG as the sequence, how does the switch fluorescence ratio read?
A: 0.971

Q: How did the switch fluorescence ratio turn out when GGATAGACGG was run?
A: 0.947

Q: GGATCAGCCC was tested. Which switch fluorescence ratio did it give?
A: 1.05

Q: GGATCAGGTC was tested. Which switch fluorescence ratio did it give?
A: 0.99

Q: Which switch fluorescence ratio does the source give for GGATCATGCG here?
A: 0.999

Q: With GGATCGATTT as the sequence, how does the switch fluorescence ratio read?
A: 1.03

Q: For GGATCGGGAG, which switch fluorescence ratio is on record?
A: 0.974

Q: GGATCTATAG was tested. Which switch fluorescence ratio did it give?
A: 0.99

Q: With GGATCTTAG as the sequence, how does the switch fluorescence ratio read?
A: 1

Q: Which switch fluorescence ratio does the source give for GGATCTTAGC here?
A: 0.971

Q: Which switch fluorescence ratio does the source give for GGATGAGGCT here?
A: 0.972

Q: How did the switch fluorescence ratio turn out when GGATGCGGAT was run?
A: 1.06

Q: How did the switch fluorescence ratio turn out when GGATGCGGTC was run?
A: 0.985

Q: For GGATGCTCCC, which switch fluorescence ratio is on record?
A: 1.21

Q: GGATGGCTGC was tested. Which switch fluorescence ratio did it give?
A: 0.956

Q: GGATGTATGA was tested. Which switch fluorescence ratio did it give?
A: 1.01

Q: Which switch fluorescence ratio does the source give for GGATTAGATA here?
A: 0.967

Q: GGATTATTCG was tested. Which switch fluorescence ratio did it give?
A: 0.971

Reference: the supplement of paper PMC10126150
